Results from PubChem BioAssay (NCATS).
Values joined by “and” are separate entries in the source; they are usually repeats but may differ in a detail not shown here. Equal values may be shown once. The list shows a part of the results. The main result of the screen is listed elsewhere. These columns were measured beside it and carry no call. Most of these compounds were active or inconclusive in the main read-out, so they are no random draw. Words in brackets tell the shape of the fitted curve; partial curves, single points and poor fits give uncertain potencies.

Experiment: qHTS Assay for Lipid Storage Modulators (AID 1519)
Details: Drosophila S3 cells, BODIPY lipid droplet/cell ratio, laser cytometry, cells loaded with oleic acid
Summary of the method: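 Cells seeded at 5,000 per well were treated with compounds over a concentration series and loaded with oleic acid (400 uM, as added). Lipid droplet fluorescence (488 nm excitation, 500-530 nm channel) was read by laser-scanning cytometry and normalized to 20 uM Triacsin C.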

[1] = measured here: cell count channel max response
[2] = measured here: lipid (BODIPY) channel AC50
[3] = measured here: lipid channel max response
[4] = measured here: cell number channel AC50
Tags give direction and shape of the fitted curve.

Structure (SMILES): COc1ccc(C(=O)N2CCC3(CCN(Cc4ccncc4)CC3)CC2)cc1
- max response [1]: 23.2%
- AC50 [2]: 0.316 µM [rising, partial curve]
- max response [3]: 31.3%

Structure (SMILES): CC(=O)NCCNc1ncnc2ccc(-c3ccc(C(=O)N(C)C)cc3)cc12
- max response [1]: 20.7%
- AC50 [2]: 15.8 µM [rising, partial curve, poor fit]
- max response [3]: 33.1%

Structure (SMILES): COc1ncc2ncc(=O)n(CCC#N)c2n1
- max response [1]: 18.3%
- AC50 [2]: 0.0501 µM [rising, full curve, poor fit]
- max response [3]: 24.1%

Structure (SMILES): CN(C)C(=O)c1ccc(-c2ccc3ncnc(N4CCOCC4)c3c2)cc1
- max response [1]: 6.9%
- AC50 [2]: 3.55 µM [rising, single point]
- max response [3]: 12.5%

Structure (SMILES): COc1ccc(/C=C/C(=O)c2cc(O)ccc2O)cc1
- max response [1]: -0.0516%
- AC50 [2]: 14.1 µM [falling, partial curve, poor fit]
- max response [3]: -42.5%

Structure (SMILES): O=c1c(O)c(-c2ccccc2)oc2ccc3occc3c12
- max response [1]: 29.3%
- AC50 [2]: 0.01 µM [rising, full curve, poor fit]
- max response [3]: 41%

Structure (SMILES): N#Cc1cccc(-c2cc(-n3ccnc3)ncn2)c1
- max response [1]: 20.9%
- AC50 [2]: 1.58 µM [rising, full curve, poor fit]
- max response [3]: 33.9%

Structure (SMILES): O=C(c1cc(C(F)(F)F)cc(C(F)(F)F)c1)N1CCC2(CCCN(c3ccccn3)C2)CC1
- max response [1]: 16.5%
- AC50 [2]: 1.78 µM [rising, partial curve, poor fit]
- max response [3]: 13.7%

Structure (SMILES): COc1ccc(-n2c(=O)c(-c3ccc(Cl)cc3)nc3cnc(N(C)C)nc32)cc1
- max response [1]: 27.3%
- AC50 [2]: 0.1 µM [rising, full curve, poor fit]
- max response [3]: 39.1%

Structure (SMILES): OC[C@@H]1O[C@@H](n2cnc3c(NC4CCCC4)ncnc32)[C@H](O)[C@H]1O
- max response [1]: 30.2%
- AC50 [4]: 31.6 µM [rising, single point]
- AC50 [2]: 31.6 µM [rising, single point]
- max response [3]: 38.7%

Structure (SMILES): O=c1c(-c2ccccc2)nc2cnc(Oc3cccc(Cl)c3)nc2n1C1CC1
- max response [1]: 15%
- AC50 [4]: 2.82 µM [rising, single point]
- max response [3]: 11.5%

Structure (SMILES): Cc1nc2cnc(Oc3ccccc3)nc2n(-c2ccccc2)c1=O
- max response [1]: 39.7%
- AC50 [4]: 8.91 µM [rising, full curve, poor fit]
- AC50 [2]: 7.94 µM [rising, partial curve]
- max response [3]: 47.2%

Structure (SMILES): O=C(Nc1cccc(F)c1)N1CC[C@@]2(CCCN(C(=O)c3cnccn3)C2)C1
- max response [1]: 10.6%
- AC50 [2]: 0.708 µM [rising, full curve, poor fit]
- max response [3]: 22.7%

Structure (SMILES): COc1ccc(-n2c(=O)c(CCc3ccccc3)nc3cnc(OC)nc32)cc1
- max response [1]: -0.493%
- AC50 [2]: 2.82 µM [rising, partial curve]
- max response [3]: 2.64%

Structure (SMILES): CCCCCCCCCCCCCCCC(=O)NCCO
- max response [1]: -34% and 56.3%
- AC50 [4]: 3.55 µM [falling, partial curve, poor fit]
- AC50 [2]: 1.41 µM [falling, full curve, poor fit]
- max response [3]: -42.5% and 56.4%

Structure (SMILES): CN(C)c1ncc2nc(-c3ccc(F)cc3)c(=O)n(-c3ccccc3)c2n1
- max response [1]: 28.2%
- AC50 [2]: 4.47 µM [rising, full curve, poor fit]
- max response [3]: 32.3%

Structure (SMILES): CC12CCC3c4ccc(O)cc4CCC3C1CCC2=O (stereo not given)
- max response [1]: 48.7%
- AC50 [4]: 28.2 µM [rising, partial curve, poor fit]
- AC50 [2]: 35.5 µM [rising, partial curve, poor fit]
- max response [3]: 59.1%

Structure (SMILES): COC(=O)C1OC(=O)C2OC23[C@]2(C)C(OC(C)=O)CC4C(C)(C)C(=O)CC[C@]4(C)C2CC[C@@]13C (stereo not given in full)
- max response [1]: 30.4%
- AC50 [4]: 2.24 µM [rising, partial curve, poor fit]
- AC50 [2]: 1.78 µM [rising, partial curve, poor fit]
- max response [3]: 39.2%

Structure (SMILES): COc1ccc2[nH]cc(CCNc3ncnc4ccc(-c5ccoc5)cc34)c2c1
- max response [1]: 14.9%
- AC50 [4]: 0.01 µM [rising, full curve]
- AC50 [2]: 0.00891 µM [rising, full curve]
- max response [3]: 15.7%

Structure (SMILES): O=C(O)c1cccnc1C(=O)O
- max response [1]: 23.1% and 21.8%
- AC50 [4]: 8.91 µM [falling, partial curve]
- AC50 [2]: 17.8 µM [rising, partial curve, poor fit] and 8.91 µM [falling, partial curve]
- max response [3]: 31.2% and 22.8%

Structure (SMILES): O=C(Nc1cccc(F)c1)N1CCC2(CC1)CCN(C(=O)c1ccco1)CC2
- max response [1]: 14.5%
- AC50 [2]: 0.01 µM [rising, full curve, poor fit]
- max response [3]: 20%
